Laboratory results from PubChem BioAssay (NCATS).
Inconclusive means that the source gave no clear call. Such entries were picked first, then a sample of the others. A potency beside an inconclusive call is a rough fit, not a confirmed value. The source made the active and inactive calls. Calls come from the whole dose curve; as a rule, active = well fitted curve in the direction sought with a large enough effect; inconclusive = small, poorly fitted or top-dose-only effect, or another doubt; inactive = no such curve, though single readings can be large; an effect the other way counts as inactive or inconclusive.

What was measured:
[1] = target: Rap guanine nucleotide exchange factor 3 (Homo sapiens) (UniProt O95398); assay: Confirmatory qHTS for antagonist of cAMP-regulated guanine nucleotide exchange factor 3 (EPAC1) (AID 1645880); conditions: EPAC1 Rap1B-BODIPY-GDP exchange, fluorescence; activity, negative = inhibition: at 115 µM (top of the series); note: nearly all actives have a fitted effect of over 55% in size;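 for activity, negative = inhibition: plate controls were DMSO only for no effect and full effect of the ATA control for full effect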
How it was run: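 Released BODIPY-GDP fluoresces less than Rap1-bound BODIPY-GDP; the signal is followed at 480/540 nm at 5-min intervals over 30 min, after 5 min at room temperature. Reactions contain 100 nM EPAC1, 250 nM RAP1B-BODIPY-GDP and 50 uM GDP; results are normalized to ATA and DMSO.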

[2] = target: Rap guanine nucleotide exchange factor 3 (Homo sapiens) (UniProt O95398); assay: Counterscreen qHTS for agonist of cAMP-regulated guanine nucleotide exchange factor 3 (EPAC1) (AID 1645889); conditions: EPAC1 Rap1B-BODIPY-GDP exchange, fluorescence; activation: at 154 µM (top of the series) unless noted; note: nearly all actives have a fitted effect of over 40% in size; for activation: % of control where 0% means no effect
How it was run: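 Rap1B–BODIPY-GDP (250 nM) with 50 uM GDP; compounds pin-transferred to 9.74 nM–152 uM final (activator) or from 7.32 nM upwards (inhibitor). Fluorescence Ex/Em 480/540 nm read at 5 and 30 min, then after adding cAMP or buffer, at room temperature.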
Potency is the fitted concentration of half-maximal effect; tags give direction and shape of the fitted curve.

Chain of UniProt O95398 (O95398 whole entry, looked up): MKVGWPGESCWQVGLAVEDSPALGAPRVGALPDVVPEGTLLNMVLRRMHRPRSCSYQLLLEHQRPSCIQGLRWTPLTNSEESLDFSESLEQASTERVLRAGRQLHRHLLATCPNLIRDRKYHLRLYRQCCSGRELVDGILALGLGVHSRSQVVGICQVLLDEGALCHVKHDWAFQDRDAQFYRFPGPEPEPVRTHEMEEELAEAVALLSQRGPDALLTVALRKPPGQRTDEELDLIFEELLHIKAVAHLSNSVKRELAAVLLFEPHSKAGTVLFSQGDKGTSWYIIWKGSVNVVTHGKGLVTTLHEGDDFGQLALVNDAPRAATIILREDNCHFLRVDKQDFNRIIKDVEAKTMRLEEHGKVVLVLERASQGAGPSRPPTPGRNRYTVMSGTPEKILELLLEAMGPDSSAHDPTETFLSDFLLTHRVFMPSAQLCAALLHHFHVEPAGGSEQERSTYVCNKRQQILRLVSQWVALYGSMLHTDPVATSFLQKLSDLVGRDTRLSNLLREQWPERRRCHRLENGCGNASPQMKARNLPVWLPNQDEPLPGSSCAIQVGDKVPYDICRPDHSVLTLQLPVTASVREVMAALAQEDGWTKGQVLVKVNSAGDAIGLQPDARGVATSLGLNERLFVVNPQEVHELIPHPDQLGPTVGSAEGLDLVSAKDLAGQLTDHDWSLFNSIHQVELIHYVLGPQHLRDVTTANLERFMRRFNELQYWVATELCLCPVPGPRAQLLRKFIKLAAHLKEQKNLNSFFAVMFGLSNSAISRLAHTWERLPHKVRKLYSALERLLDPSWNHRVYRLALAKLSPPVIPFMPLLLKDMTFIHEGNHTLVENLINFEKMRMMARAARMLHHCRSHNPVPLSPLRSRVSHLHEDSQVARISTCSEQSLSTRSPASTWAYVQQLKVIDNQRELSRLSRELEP

**Q.** Which results are given for `CCCCc1c(C)nc2ccccc2c1SCCC#N`?
**A.** Potency [1]: inactive; activation [2]: inconclusive: 40.7% [activator] [at 30.8 µM]

**Q.** For `COc1cccc(NC(=O)c2csc3c2CCCC3)c1`, which Potency [1] is on record?
**A.** inactive

**Q.** And the Potency [2]?
**A.** inconclusive: 17.8 µM [activator, single point]

**Q.** What does the source list for `CCN(CC)C(=O)c1ccc2c(c1)N(Cc1ccc(C(F)(F)F)cc1)C(=O)c1ccccc1S2`?
**A.** Potency [1]: inconclusive: 84.9 µM [inhibitor, partial curve]; Potency [2]: inactive

**Q.** For `CCc1nc2c(OCCC3CCCCC3)cccn2c1N(C)C(=O)c1ccc(C)cc1`, which Potency [1] is on record?
**A.** inconclusive: 60.1 µM [inhibitor, partial curve, poor fit]

**Q.** What about the Potency [2] of the same compound?
**A.** inconclusive: 15.8 µM [activator, single point]

**Q.** What does the source list for `CCOc1cccc(-c2c(C(=O)N/N=C/c3cccs3)nnn2-c2nonc2N)c1`?
**A.** Potency [1]: inconclusive: 28.2 µM [inhibitor, partial curve]; Potency [2]: active: 10 µM

**Q.** `Cc1nc(N)sc1C(=O)N1N=N1` was tested. Which Potency [1] did it give?
**A.** inactive

**Q.** What about the Potency [2] of the same compound?
**A.** inactive

**Q.** What does the source list for `CC(C)CCNc1c(-c2cccs2)nc2ccccn12`?
**A.** Potency [1]: inconclusive: 47.8 µM [inhibitor, partial curve, poor fit]; Potency [2]: inactive

**Q.** What does the source list for `C=CCc1ccccc1OCc1nc2ccccc2n1CC`?
**A.** Potency [1]: inconclusive: 84.9 µM [inhibitor, single point]; Potency [2]: inactive

**Q.** What does the source list for `COC(=O)c1c(SC)nc2ccccc2c1OCc1ccc(Br)cc1`?
**A.** Potency [1]: inactive; activation [2]: inconclusive: 35.2% [activator]

**Q.** With `CC(=O)/C(=N/Nc1ccccc1)Sc1nnc(CCc2ccccc2)n1-c1ccccc1` as the compound, how does the Potency [1] read?
**A.** inconclusive: 26.9 µM [inhibitor, partial curve, poor fit]

**Q.** What about the Potency [2] of the same compound?
**A.** inactive

**Q.** Which Potency [1] does the source give for `CC(C)CNc1ncnc2onc(-c3ccc(Cl)cc3)c12` here?
**A.** inconclusive: 95.3 µM [inhibitor, partial curve, poor fit]

**Q.** What about the Potency [2] of the same compound?
**A.** inconclusive: 44.7 µM [activator, partial curve, poor fit]

**Q.** With `CC(=O)c1sc(NC(=O)c2c(F)cccc2F)nc1C` as the compound, how does the Potency [1] read?
**A.** inactive

**Q.** What about the Potency [2] of the same compound?
**A.** inconclusive: 0.0089 µM [activator, full curve]

**Q.** Which results are given for `COc1cc(OC)nc(Oc2cc(/C=N/O)ccc2OC)n1`?
**A.** Potency [1]: inactive; activation [2]: inactive: 1.61% [at 30.8 µM]

**Q.** What does the source list for `Cc1ccc2nc(-c3ccco3)c(Cc3cccc(Cl)c3)n2c1`?
**A.** Potency [1]: inconclusive: 50.1 µM [inhibitor, partial curve, poor fit]; activation [2]: inactive: 14.3% [at 30.8 µM]

**Q.** `COc1ccc(S(=O)(=O)NC(CCSC)C(=O)NC2CCCCC2)cc1` (stereo not given) was tested. Which Potency [1] did it give?
**A.** inactive

**Q.** And the Potency [2]?
**A.** inactive

**Q.** Which results are given for `O=[N+]([O-])c1ccc(Cc2ccccn2)c([N+](=O)[O-])c1`?
**A.** Potency [1]: inactive; Potency [2]: inactive

**Q.** Which results are given for `CS(=O)(=O)N1CCN(c2ccc([N+](=O)[O-])c(NCc3ccc(Cl)cc3)c2)CC1`?
**A.** Potency [1]: inconclusive: 7.08 µM [inhibitor, partial curve, poor fit]; activation [2]: inactive: 12% [at 30.8 µM]

**Q.** For `Cc1ccc(S(=O)(=O)Nc2ccc(S(=O)(=O)Nc3nccs3)cc2)cc1C`, which Potency [1] is on record?
**A.** inconclusive: 53.6 µM [inhibitor, partial curve, poor fit]

**Q.** What about the Potency [2] of the same compound?
**A.** inactive

**Q.** With `CCCc1nc2c(Cl)cc(C(F)(F)F)cn2c1Cc1ccc(OC)cc1C` as the compound, how does the Potency [1] read?
**A.** inconclusive: 39.8 µM [inhibitor, partial curve, poor fit]

**Q.** What about the activation [2] of the same compound?
**A.** inactive: 14.3% [at 30.8 µM]

**Q.** With `CCOC(=O)C1=C(c2ccccc2)c2ccccc2OC1C(=O)OCC` (stereo not given) as the compound, how does the Potency [1] read?
**A.** inconclusive: 39.8 µM [inhibitor, partial curve]

**Q.** What about the activation [2] of the same compound?
**A.** inactive: 24.5% [at 30.8 µM]

**Q.** Which results are given for `Cc1cc(Nc2cccc(C(F)(F)F)c2)nc2ccc(NC(=O)c3ccc(N(C)C)cc3)cc12`?
**A.** Potency [1]: inactive; activation [2]: inconclusive: 45.6% [activator]

**Q.** Which Potency [1] does the source give for `CNc1nc(-c2ccc(OC)cc2)c(-c2ccc(OC)cc2)s1` here?
**A.** inactive

**Q.** What about the Potency [2] of the same compound?
**A.** inconclusive: 10 µM [activator, partial curve, poor fit]

**Q.** With `Cc1ccc(NC(=O)CN2C(=O)S/C(=C\c3cccn3-c3cccc(C(=O)O)c3)C2=O)cc1C` as the compound, how does the Potency [1] read?
**A.** inconclusive: 10 µM [inhibitor, full curve]

**Q.** And the activation [2]?
**A.** inconclusive: 32.2% [activator] [at 30.8 µM]

**Q.** With `Brc1ccc(/C=N/Nc2nc3ccccc3o2)cc1` as the compound, how does the Potency [1] read?
**A.** inconclusive: 67.5 µM [inhibitor, partial curve, poor fit]

**Q.** And the Potency [2]?
**A.** inactive

**Q.** Which Potency [1] does the source give for `COc1ccc(OC)c(/C=C2\SC(=S)N(NS(=O)(=O)c3ccc(C)cc3)C2=O)c1` here?
**A.** active: 30.1 µM

**Q.** What about the activation [2] of the same compound?
**A.** inconclusive: 26% [activator]
